Source: ChEMBL document CHEMBL5308541, “MAIP: An Open-Source Tool to Enrich High-Throughput Screening Output and Identify Novel, Druglike Molecules with Antimalarial Activity” (ACS Med Chem Lett, 2023)
The campaign covered roughly 150,000 compounds. About 540 (0.36%) showed an effect of 50% or more. This is one part of the list.

Test system: Plasmodium falciparum
Assay: Primary screen in NF54 nanoGlo assay, in single point, at 2uM, 72h; a lower Z score goes with more inhibition
Type: functional, Erythrocyte
Conditions: timepoint 72 hour

| SMILES | % Inhibition [%] | Z score |
| --- | --- | --- |
| Cc1cc(C(=O)N2CC(N3CCCCC3)C2)c2cccc(C)c2n1 | -3 | 0.64 |
| Cc1cc(NC[C@H](O)c2ccc(O)cc2)nc(N)n1 | -16 | 3.27 |
| Cc1cc(CN2CCN(CC3(CN4CCN(Cc5cc(C)no5)CC4)COC3)CC2)on1 | 8 | -1.48 |
| O=C(Nc1cccc(N2CCC(N3CCN(c4ncnc5ccccc45)CC3)CC2)c1)c1ccncc1 | -2 | 0.28 |
| COc1cc(OC)cc(N2CCCN(C[C@]3(O)CCNC3)CC2)c1 | -5 | 0.84 |
| O=C(NCc1nc2cc(Br)ccc2o1)C(C1CC1)C1CC1 | 1 | -0.31 |
| CN(C)c1nsc(-c2ccc(C(=O)NC3CS(=O)(=O)CC3O)cc2)n1 (stereo not given) | -8 | 1.3 |
| CCN1CCC[C@@H]1CN=C(NCCOC)NCCS(=O)(=O)CC | -5 | 0.93 |
| O=c1ccnc2sc(N[C@H]3CC[C@H](Nc4ccccn4)CC3)nn12 | 0 | -0.02 |
| COC(=O)C1CN(Cc2ccc(Cl)c3cccnc23)CC1C (stereo not given) | 2 | -0.35 |
| CC(C)(C)[C@H](NCC(F)(F)F)c1nc(-c2nc[nH]n2)no1 | 4 | -0.67 |
| O=C(NCCN1CCC(CO)CC1)c1ccccc1-c1ccccc1F | -12 | 2.57 |
| CCc1nc(CN(C)C(=O)C2OCC(=O)NC2c2ccccc2)no1 (stereo not given) | -3 | 0.57 |
| COCCN(C)CCN1C[C@@H](Nc2ncnc3c2cnn3C)CC1=O | 5 | -0.83 |
| CCN(C)c1cc(NC2CCN(C[C@H]3CCCO3)CC2)ncn1 | 2 | -0.39 |
| COc1ccc2cc(CNC3CC4CCC(C3)N4C(=O)OC(C)(C)C)ccc2c1 (stereo not given) | 2 | -0.43 |
| CCN1CCN(c2ccc(CNCc3cccc(O)c3)cc2F)CC1 | 90 | -19.29 |
| COC1CCN(c2ccc(C(=O)NCc3cncc(-c4ccoc4)c3)cc2)CC1 | -8 | 1.65 |
| O[C@@H](CNCc1cc2cc(Cl)c(Cl)cc2[nH]1)c1ccc(F)cc1 | 76 | -13.27 |
| NC(=O)c1ccccc1N1CC[C@H](NCc2ccc3c[nH]nc3c2)C1 | 9 | -1.41 |

| SMILES | % Inhibition [%] | Z score |
| --- | --- | --- |
| Cc1cc(C)nc(N2CCC(N3CCCN(C4COCC4O)CC3)CC2)n1 (stereo not given) | 5 | -0.81 |
| C[C@H](NC(=O)c1cc(O)c2ccccc2n1)c1cc2ccccc2s1 | -1 | 0.21 |
| OCC[C@H](Nc1ccnc2ccncc12)C1CCCCC1 | 8 | -1.67 |
| COc1ccc2[nH]c(CNCc3ccc(CN4CCCCC4)s3)cc2c1 | 7 | -1.44 |
| C=C(C)CN(Cc1c[nH]nc1-c1ccccc1F)Cc1c[nH]nc1-c1ccccc1F | -12 | 2.14 |
| c1ccc(-c2ncc(CN(Cc3cccnc3)CC3CCN(C4CCCC4)CC3)s2)cc1 | -9 | 1.54 |
| Nc1nc(NC[C@@H](CO)Cc2ccccn2)nc2ccccc12 | 2 | -0.46 |
| Cc1ccc(C(=O)N2CCS(=O)(=O)C[C@H]2C(=O)O)cc1C | -11 | 2.12 |
| CNc1nc(N[C@H]2CCCN(CC3CCCCC3)C2)ncc1F | 0 | -0.1 |
| O=C(C1CCNCC1)N1CC(O)C(Cc2ccnc3ccccc23)C1 (stereo not given) | -6 | 1.1 |
| CC(C)(CNC1CCN(c2ccc(C(=O)NCc3ccccc3F)cc2)CC1)N1CCOCC1 | -9 | 1.62 |
| CN1CC[C@@H](CNC2CCCN(Cc3ccccc3)C2)[C@@H]1c1cccnc1 (stereo not given in full) | 3 | -0.54 |
| O=C([C@@H]1COCCN1CC(F)F)N1CCC(c2c[nH]c3cc(F)ccc23)CC1 | 0 | -0.02 |
| C[C@@H](c1ccc(-c2ncc(F)c(N3CCOCC3)n2)cc1)N1CCCCC1 | 1 | -0.18 |
| Nc1ccc2c(N3CCN(CCOc4ccccc4Cl)CC3)ncnc2n1 | 4 | -0.7 |
| CCCN1CCN([C@@H](C)CCCN(C(=O)Cc2c[nH]c3cc(Cl)ccc23)C2CC2)CC1 | 3 | -0.6 |
| c1nc2c(c(Nc3ccc4scnc4c3)n1)CCC2 | -5 | 1.02 |
| CCN1C[C@@H](CNCc2cnc(Nc3ccc4nccnc4c3)s2)CC1=O | -2 | 0.3 |
| O=C(Cc1c[nH]c2ncccc12)N1CCCN(c2ccccc2Cl)CC1 | 7 | -1.44 |
| OCCNc1cc(NCC2CCN(C3CCCC3)CC2)ncn1 | -6 | 0.96 |
